Measurements published in PubChem BioAssay AID1476 (National Center for Advancing Translational Sciences (NCATS), 2009).
The whole screen tested about 200,000 compounds, of which about 4,500 (2.2%) were called active. Inconclusive results, whose numbers are uncertain, are shown with a selection of clear calls. Calls come from the whole dose curve; as a rule, active = well fitted inhibition curve with a large enough effect; inconclusive = small, poorly fitted or top-dose-only effect, or effect the other way; inactive = flat fitted curve, though single readings scatter. A potency beside an inconclusive call is a rough fit, not a confirmed value.

target: Cruzipain (Trypanosoma cruzi) (UniProt P25779); test: qHTS Assay for Promiscuous and Specific Inhibitors of Cruzain (without detergent); conditions: purified cruzain, Z-FR-AMC fluorescence, no detergent; note: nearly all actives have a fitted effect of over 40% in size;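 for max response, negative = inhibition: plate controls were enzyme without inhibitor for no effect and buffer without enzyme for full effect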
Sequence of UniProt P25779 (P25779 whole entry, looked up): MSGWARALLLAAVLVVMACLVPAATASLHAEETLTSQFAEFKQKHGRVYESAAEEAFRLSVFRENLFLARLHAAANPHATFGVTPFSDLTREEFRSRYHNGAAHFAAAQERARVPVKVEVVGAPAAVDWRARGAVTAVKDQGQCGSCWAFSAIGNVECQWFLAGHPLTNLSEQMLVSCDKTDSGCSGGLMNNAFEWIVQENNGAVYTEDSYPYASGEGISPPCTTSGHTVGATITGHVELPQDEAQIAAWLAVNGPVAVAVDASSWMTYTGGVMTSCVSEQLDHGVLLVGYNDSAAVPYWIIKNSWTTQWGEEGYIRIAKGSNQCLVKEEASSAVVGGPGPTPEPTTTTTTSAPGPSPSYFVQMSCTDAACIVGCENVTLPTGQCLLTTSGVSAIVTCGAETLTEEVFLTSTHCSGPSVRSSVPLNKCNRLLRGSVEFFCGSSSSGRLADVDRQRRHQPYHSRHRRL
Method in brief: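 Detergent-free condition (0.00005% Triton X-100) in acetate buffer pH 5.5 with DTT. 1.5 nM enzyme and compound were pre-mixed 15 min, then 2 uM Z-FR-AMC substrate added; reaction progress from fluorescence change between first and third reads (60 s).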
Potency is the fitted concentration of half-maximal effect; tags give direction and shape of the fitted curve.

Row | SMILES | Potency | max response, negative = inhibition
1 | COc1ccc(S(=O)(=O)N2CCN(CC(=O)Nc3cc(OC)cc(OC)c3)CC2)cc1 | inconclusive: 39.8 µM [activator, single point] | –
2 | Cc1ccc(F)cc1S(=O)(=O)N1CCC(c2nc3ccccc3s2)CC1 | – | inactive: -6.75%
3 | Cc1ccc2nc3c(c(Nc4ccc(C)c(C)c4)c2c1)CCC3 | inconclusive: 12.6 µM [inhibitor, partial curve] | –
4 | CNC(=O)CN1C(=O)NC2(CCc3ccccc32)C1=O (centres undefined) | inconclusive: 3.16 µM [inhibitor, single point] | –
5 | Cc1ccc(-c2nnn(CC(=O)N(c3ccccc3)C(C(=O)NC(C)(C)C)c3cccs3)n2)o1 (centres undefined) | active: 6.31 µM | –
6 | CCn1cc2nc(SCC(=O)Nc3ccc(OC)cc3OC)n(Cc3ccc(Cl)cc3)c(=O)c2n1 | inconclusive: 20 µM [activator, partial curve] | –
7 | O=C(NCc1ccccc1)c1cccc(OCC(=O)N2CCN(C(=O)c3ccco3)CC2)c1 | – | inactive: 1.93%
8 | CCOC(=O)c1ccc(NC(=O)CSc2ncc(S(=O)(=O)c3ccc(C)c(Cl)c3)c(=O)[nH]2)cc1 | inconclusive: 25.1 µM [activator, partial curve] | –
9 | O=C(NCCc1c[nH]c2ccccc12)C(=O)NCC1OCCCN1S(=O)(=O)c1ccc(F)cc1 (centres undefined) | inconclusive: 31.6 µM [inhibitor, single point] | –
10 | CCOC(=O)c1ccc(N2N=C(C)/C(=C/C=C/c3ccco3)C2=O)cc1 | inconclusive: 31.6 µM [activator, single point] | –
11 | CCC(c1nnc(SCC(=O)Nc2ccc(C(=O)Nc3ccccc3OC)cc2)o1)N(C)C (centres undefined) | inconclusive: 39.8 µM [activator, single point] | –
12 | C1CNCCN1 | – | inactive: -6.15%
13 | O=S(=O)(N/N=C/c1ccccc1OCc1ccc(Cl)cc1)c1ccccc1 | inconclusive: 31.6 µM [inhibitor, single point] | –
14 | Cc1ccc(Cl)cc1N1CCN(C(=O)c2noc3c2CCCC3)CC1 | – | inactive: 8.81%
15 | COc1cccc(Cn2c(=O)cnc3cnc(OCc4ccccc4)nc32)c1 | – | inactive: -12.7%
16 | Cc1cccc(Cn2cc(SCC(=O)Nc3nccs3)c3ccccc32)c1 | inconclusive: 31.6 µM [inhibitor, single point] | –
17 | Cc1cc(Oc2nc3c(C)cccn3c(=O)c2/C=C(\C#N)S(=O)(=O)c2ccc(Cl)cc2)ccc1Cl | active: 12.6 µM | –
18 | CCOC(=O)c1c(NC(=O)c2cc3n(n2)C(C(F)(F)F)CC(c2cccs2)N3)sc(C)c1C (centres undefined) | active: 6.31 µM | –
19 | CCOC(=O)/C=c1\s/c(=C\c2ccccc2C)c(=O)n1CC(=O)NCc1ccc2c(c1)OCO2 | inconclusive: 39.8 µM [inhibitor, single point] | –
